Reference: PubChem BioAssay (NCATS)
Values joined by “and” are separate entries in the source; they are usually repeats but may differ in a detail not shown here. Identical values can stand only once. The inconclusive results got no clear call from the source; some entries with a clear call stand among them for comparison. For some of these results: Potencies of inconclusive entries are doubtful fits and often do not repeat. Some compounds were tested as several samples or in several runs, with calls that do not always agree. Active and inactive are the calls of the source. Unless noted, calls come from the whole dose curve; as a rule, active = well fitted curve in the direction sought with a large enough effect; inconclusive = small, poorly fitted or top-dose-only effect, or another doubt; inactive = no such curve, though single readings can be large; an effect the other way counts as inactive or inconclusive.

Legend:
[1] = P-glycoprotein substrates identified in KB-8-5-11 adenocarcinoma cell line, qHTS therapeutic library screen (AID 1346987); settings: KB-8-5-11 (P-gp overexpressing) viability, CellTiter-Glo, 72 h; series mostly up to 44.5 µM; note: nearly all actives have a fitted effect of over 65% in size; note: potency is the fitted concentration of half-maximal effect
Summary of the method: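 KB-8-5-11: colchicine-selected sub-line of KB-3-1 over-expressing P-gp; assay medium lacked colchicine. 72 h drug exposure at 37 degree C, CellTiter-Glo.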

[2] = NS1 protein of Zika virus - qHTS assay to identify small molecule inhibitors in human HEK 293 cells (AID 1347053); settings: HEK293 ZIKV MR766 infection, NS1 TR-FRET, 24 h; series mostly up to 46.1 µM; note: nearly all actives have a fitted effect of over 55% in size; note: potency is the fitted concentration of half-maximal effect
Summary of the method: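 Following 20 h seeding, HEK 293 cells took compound, then 1 h later ZIKV MR766 (MOI = 0.5). Incubation ran 24 h at 37 C before TR-FRET detection of NS1; a drop in signal indicates inhibition.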

[3] = qHTS of pediatric cancer cell lines to identify multiple opportunities for drug repurposing: Primary screen for TC32 cells (AID 1347089); settings: TC32 Ewing sarcoma viability, CellTiter-Glo luminescence, 48 h; series mostly up to 45.8 µM; note: nearly all actives have a fitted effect of over 60% in size; note: potency is the fitted concentration of half-maximal effect
Summary of the method: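 qHTS, TC32, 48 h drug treatment, CellTiter-Glo luminescence as a proxy for metabolically active cells; primary top concentration 46 µM (MIPE 11-pt, NPC 8-pt); confirmatory 11-pt.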

[4] = biological target: Tyrosine-protein phosphatase non-receptor type substrate 1 (Homo sapiens) + Leukocyte surface antigen CD47 (Homo sapiens) (UniProt P78324+Q08722); experiment: CD47-SIRPalpha protein protein interaction - HTRF assay qHTS validation (AID 1347058; active = well fitted curve in the direction sought with a large enough effect in the signal ratio, not every such curve was filed as active; inconclusive = small, poorly fitted or top-dose-only effect, or effect the other way, or a change in a side signal; inactive = no such curve, though single readings can be large or run the other way; the % refers to the signal ratio;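 note: recombinant soluble extracellular CD47 with His tag and biotinylated SIRPalpha domains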); settings: TR-FRET HTRF CD47-His / biotin-SIRPalpha binding, ratio 665/615; series mostly up to 38.3 µM
Summary of the method: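 TR-FRET read (Ch1/Ch2 ratio) of soluble extracellular CD47 and Avi-biotinylated SIRPalpha domains in PBS pH 7.4 with 0.05% IGEPAL; 7-point compound titration. Sequential 30 min room-temperature steps; non-biotinylated SIRPalpha as control inhibitor.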
Tags give direction and shape of the fitted curve.

Sequence of UniProt P78324 (P78324 whole entry, looked up, the tested form may be a part): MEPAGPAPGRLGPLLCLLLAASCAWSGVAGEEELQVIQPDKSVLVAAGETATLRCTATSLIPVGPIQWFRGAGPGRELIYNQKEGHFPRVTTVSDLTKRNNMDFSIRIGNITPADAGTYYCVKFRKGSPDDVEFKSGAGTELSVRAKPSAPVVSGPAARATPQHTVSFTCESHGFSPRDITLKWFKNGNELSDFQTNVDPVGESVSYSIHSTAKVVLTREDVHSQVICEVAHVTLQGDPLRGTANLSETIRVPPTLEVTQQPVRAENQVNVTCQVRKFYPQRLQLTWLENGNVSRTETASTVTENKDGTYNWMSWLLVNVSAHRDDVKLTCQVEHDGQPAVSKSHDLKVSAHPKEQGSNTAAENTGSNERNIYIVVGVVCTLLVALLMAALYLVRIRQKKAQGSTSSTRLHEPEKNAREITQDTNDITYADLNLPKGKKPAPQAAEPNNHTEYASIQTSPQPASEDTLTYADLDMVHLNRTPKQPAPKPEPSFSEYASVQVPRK
Sequence of UniProt P78324 (Q08722 whole entry, looked up, the tested form may be a part): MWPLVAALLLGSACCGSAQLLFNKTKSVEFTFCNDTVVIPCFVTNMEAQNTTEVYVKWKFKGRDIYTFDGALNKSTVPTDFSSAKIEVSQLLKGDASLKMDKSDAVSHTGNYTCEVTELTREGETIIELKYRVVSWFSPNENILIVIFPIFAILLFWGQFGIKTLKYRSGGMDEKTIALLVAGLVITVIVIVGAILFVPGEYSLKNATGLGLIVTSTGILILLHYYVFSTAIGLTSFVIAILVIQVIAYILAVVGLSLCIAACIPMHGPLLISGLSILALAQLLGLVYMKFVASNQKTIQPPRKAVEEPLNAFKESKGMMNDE

SMILES	Potency [1]	Potency [2]	Potency [3]	Potency [4]
CCc1nc(-c2cccc(C)c2)c(-c2ccnc(NC(=O)c3ccccc3)c2)s1	active: 20.9 µM and inconclusive: 16.4 µM [inhibitor, single point]	active: 10.5 µM		
CN[C@@H]1CN(c2ccc3c(=O)c(C(=O)O)cn(-c4nccs4)c3n2)C[C@@H]1OC	inconclusive: 4.07 µM [inhibitor, partial curve]	inconclusive: 18.2 µM [inhibitor, single point]		
Clc1ccc(C2(c3ccc(-c4cn[nH]c4)cc3)CCNCC2)cc1	inconclusive: 26.4 µM [inhibitor, single point] and inconclusive: 23.1 µM [inhibitor, single point]	inconclusive: 37.2 µM [inhibitor, single point]		
CC1=C(C(=O)Nc2cc3cn[nH]c3cc2F)C(c2ccc(Cl)cc2F)N=C(c2ccnc(Cl)c2)N1 (configuration not stated)	inconclusive: 26.4 µM [inhibitor, single point] and inconclusive: 18.4 µM [inhibitor, single point]		inconclusive: 18.6 µM [cytotoxic, partial curve]	
Cn1cc(-c2ccncc2)c(-c2ccc(OCc3ccc4ccccc4n3)cc2)n1	inconclusive: 8.33 µM [inhibitor, full curve, poor fit]		inconclusive: 16.5 µM [cytotoxic, partial curve]	
COc1ccc2c(c1)c(CC(=O)O)c(C)n2C(=O)c1ccc(Cl)cc1	inactive		inactive	inactive
COc1cc2c(Nc3ccc(NC(=O)c4ccccc4)cc3)ncnc2cc1OCCCN1CCOCC1	inconclusive: 29.1 µM [inhibitor, single point]	inconclusive: 33.2 µM [inhibitor, single point]		
O=C(c1ccc(C=Cc2n[nH]c3ccccc23)cc1)N1CCNCC1	inconclusive: 2.64 µM [inhibitor, full curve]	inconclusive: 33.2 µM [inhibitor, single point]	active: 4.66 µM	
Oc1ccc([C@@H]2Oc3ccc(O)cc3[C@@H]3CCC[C@@H]32)cc1	active: 5.9 µM and active: 5.8 µM	inconclusive: 23.5 µM [inhibitor, single point]	inconclusive: 26.2 µM [cytotoxic, single point]	
O=C(Nc1nnc(-c2ccco2)o1)c1cc(-c2ccccc2)nc2ccccc12	inconclusive: 23.5 µM [inhibitor, single point]	inconclusive: 37.2 µM [inhibitor, single point]	inconclusive: 37 µM [cytotoxic, single point]	
Nc1nc2c(ncn2COC(CO)CO)c(=O)[nH]1	inactive and active: 16.6 µM	inconclusive: 33.2 µM [inhibitor, single point]	inconclusive: 33 µM [cytotoxic, single point]	
C#CCN(C)CC1=Cc2ccccc2Oc2ccccc21	inconclusive: 16.6 µM [inhibitor, partial curve]	inconclusive: 37.2 µM [inhibitor, single point]		
Cn1cnc(-c2cc3nccc(Oc4ccc(NC(=S)NC(=O)Cc5ccccc5)cc4F)c3s2)c1	inconclusive: 23.5 µM [inhibitor, partial curve] and inconclusive: 18.4 µM [inhibitor, single point]	inconclusive: 37.2 µM [inhibitor, partial curve, poor fit]		
C=CC[C@@H]1C=C(C)C[C@H](C)C[C@H](OC)[C@H]2O[C@@](O)(C(=O)C(=O)N3CCCC[C@H]3C(=O)O[C@H](C(C)=C[C@@H]3CC[C@H](O)[C@H](OC)C3)[C@@H](C)[C@@H](O)CC1=O)[C@@H](C)C[C@@H]2OC	inconclusive: 8.33 µM [inhibitor, single point]	inconclusive: 0.132 µM [inhibitor, single point]		
CSc1cccc(Nc2ncc3cc(-c4c(Cl)cccc4Cl)c(=O)n(C)c3n2)c1	active: 1.3 µM	inconclusive: 1.05 µM [inhibitor, full curve, poor fit]		
O=C(O)c1ccc(-n2nc(-c3ccccc3O)nc2-c2ccccc2O)cc1	inconclusive: 29.6 µM [inhibitor, single point]	inactive and inconclusive: 37.2 µM [inhibitor, partial curve, poor fit]		
